Test results from EPA's CvTdb concentration-time database.
The source gives many values for each of these; only a part stands here.

How the values were obtained:
Test in all cases: concentration in plasma after dosing
Rat [1] = conditions: 1 h; dosed: Methyleugenol; 37 mg/kg; oral; Female; F344
Rat [2] = conditions: dosed: Methyleugenol, 150 mg/kg, oral, Female, F344/N
Rat [3] = conditions: dosed: Methyleugenol, 150 mg/kg, oral, Male, F344/N
Rat [4] = conditions: 0.25 h; dosed: Methyleugenol; 37 mg/kg; oral; Male; F344
Rat [5] = conditions: dosed: Methyleugenol, 150 mg/kg, oral, Male, F344
Rat [6] = conditions: dosed: Methyleugenol, 75 mg/kg, oral, Male, F344
Rat [7] = conditions: dosed: Methyleugenol, 150 mg/kg, oral, Male, F344/N; remark: listed apart in the source
Rat [8] = conditions: dosed: Methyleugenol, 150 mg/kg, oral, Male, F344/N; remark: listed apart in the source
Rat [9] = conditions: dosed: Methyleugenol, 75 mg/kg, oral, Female, F344
Rat [10] = conditions: dosed: Methyleugenol, 75 mg/kg, oral, Female, F344; remark: listed apart in the source
Rat [11] = conditions: dosed: Methyleugenol, 150 mg/kg, oral, Male, F344/N; remark: listed apart in the source
Rat [12] = conditions: dosed: Methyleugenol, 150 mg/kg, oral, Female, F344/N; remark: listed apart in the source
Rat [13] = conditions: dosed: Methyleugenol, 150 mg/kg, oral, Male, F344/N; remark: listed apart in the source
Rat [14] = conditions: dosed: Methyleugenol, 150 mg/kg, oral, Female, F344
Rat [15] = conditions: dosed: Methyleugenol, 37 mg/kg, oral, Male, F344
Rat [16] = conditions: dosed: Methyleugenol, 75 mg/kg, oral, Male, F344/N
Rat [17] = conditions: dosed: Methyleugenol, 75 mg/kg, oral, Male, F344; remark: listed apart in the source
Rat [18] = conditions: dosed: Methyleugenol, 75 mg/kg, oral, Female, F344/N
Rat [19] = conditions: dosed: Methyleugenol, 75 mg/kg, oral, Male, F344/N; remark: listed apart in the source
Rat [20] = conditions: 0.25 h; dosed: Methyleugenol; 37 mg/kg; oral; Female; F344
Rat [21] = conditions: dosed: Methyleugenol, 75 mg/kg, oral, Male, F344/N; remark: listed apart in the source
Rat [22] = conditions: 0.5 h; dosed: Methyleugenol; 37 mg/kg; oral; Female; F344
Rat [23] = conditions: dosed: Methyleugenol, 75 mg/kg, oral, Female, F344/N; remark: listed apart in the source
Rat [24] = conditions: dosed: Methyleugenol, 150 mg/kg, oral, Male, F344/N; remark: listed apart in the source
Rat [25] = conditions: dosed: Methyleugenol, 37 mg/kg, oral, Male, F344; remark: listed apart in the source
Rat [26] = conditions: dosed: Methyleugenol, 75 mg/kg, oral, Female, F344/N; remark: listed apart in the source
Rat [27] = conditions: dosed: Methyleugenol, 75 mg/kg, oral, Female, F344/N; remark: listed apart in the source
Rat [28] = conditions: dosed: Methyleugenol, 75 mg/kg, oral, Male, F344/N; remark: listed apart in the source
Rat [29] = conditions: dosed: Methyleugenol, 75 mg/kg, oral, Female, F344/N; remark: listed apart in the source
Rat [30] = conditions: dosed: Methyleugenol, 150 mg/kg, oral, Male, F344; remark: listed apart in the source
Rat [31] = conditions: dosed: Methyleugenol, 75 mg/kg, oral, Female, F344; remark: listed apart in the source
Rat [32] = conditions: dosed: Methyleugenol, 75 mg/kg, oral, Male, F344; remark: listed apart in the source
Rat [33] = conditions: dosed: Methyleugenol, 150 mg/kg, oral, Male, F344/N; remark: listed apart in the source
Rat [34] = conditions: dosed: Methyleugenol, 75 mg/kg, oral, Female, F344/N; remark: listed apart in the source
Rat [35] = conditions: dosed: Methyleugenol, 150 mg/kg, oral, Female, F344/N; remark: listed apart in the source

C=CCc1ccc(OC)c(OC)c1 [Methyleugenol]
Conditions | concentration in plasma [ng/mL]
Rat [1] | 227
Rat [4] | 431
Rat [20] | 475
Rat [22] | 192

Conditions | concentration in plasma [ng/mL]
Rat [2], 0.5 h | 1070
Rat [2], 4 h | 1430
Rat [3], 1.5 h | 549
Rat [3], 3 h | 952
Rat [5], 0.5 h | 2730
Rat [5], 1.5 h | 1080
Rat [6], 0.25 h | 1850
Rat [6], 4 h | 80
Rat [7], 1.5 h | 697
Rat [7], 5 h | 916
Rat [8], 10 min | 1950
Rat [8], 12 h | 56.1
Rat [9], 0.25 h | 1160
Rat [9], 4 h | 157
Rat [10], 0.25 h | 1590
Rat [10], 4 h | 55
Rat [11], 2 h | 1200
Rat [11], 12 h | 47.5
Rat [12], 1.5 h | 879
Rat [12], 5 h | 238
Rat [13], 0.5 h | 822
Rat [13], 3 h | 800
Rat [14], 5 min | 4800
Rat [14], 6 h | 248
Rat [15], 0.5 h | 325
Rat [15], 1.5 h | 160
Rat [16], 2 min | 337
Rat [16], 5 h | 167
Rat [17], 1 h | 600
Rat [17], 2 h | 327
Rat [18], 0.5 h | 281
Rat [18], 8 h | 10.9
Rat [19], 0.5 h | 481
Rat [19], 12 h | 8.27
Rat [21], 1.5 h | 262
Rat [21], 4 h | 220
Rat [23], 2 min | 980
Rat [23], 6 h | 49
Rat [24], 1 h | 1520
Rat [24], 3 h | 597
Rat [25], 0.5 h | 252
Rat [25], 1.5 h | 104
Rat [26], 2 h | 140
Rat [26], 5 min | 1790
Rat [27], 1.5 h | 235
Rat [27], 8 h | 20
Rat [28], 3 h | 93.5
Rat [28], 10 min | 669
Rat [29], 2 h | 38
Rat [29], 10 min | 814
Rat [30], 1 h | 1320
Rat [30], 2 h | 623
Rat [31], 1 h | 959
Rat [31], 2 h | 191
Rat [32], 5 min | 1380
Rat [32], 6 h | 57
Rat [33], 0.25 h | 4150
Rat [33], 5 h | 877
Rat [34], 1 h | 311
Rat [34], 3 h | 127
Rat [35], 1 h | 631
Rat [35], 24 h | 6.28
